Data reported in PubChem BioAssay AID1645887 (National Center for Advancing Translational Sciences (NCATS), 2021).
Where “and” joins values, the source holds several entries; their conditions need not be identical. Identical values can stand only once. The campaign covered roughly 16,000 compounds. About 40 (0.2%) were called active. Inconclusive results (about 1%) are left out. Calls come from the whole dose curve; as a rule, active = well fitted activation curve with a large enough effect; inconclusive = small, poorly fitted or top-dose-only effect, or another doubt; inactive = no such curve, though single readings can be large or run the other way. The list shows a part of the results.

The compounds below were run against Rap guanine nucleotide exchange factor 4 (Homo sapiens) (UniProt Q8WZA2) (assay: Validation qHTS for agonist of cAMP-regulated guanine nucleotide exchange factor 4 (EPAC2)). Conditions: EPAC2 Rap1B BODIPY-GDP exchange, fluorescence; activation: stronger effect = higher value.
Summary of the method: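 Signal normalized against 6.5 mM cAMP as agonist control. Mix of EPAC2 (100 nM), RAP1B-BODIPY-GDP (250 nM) and GDP (50 uM) was read kinetically at 480/540 nm, every 5 min over 30 min, after 5 min room-temperature incubation with compound.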
% is set by controls: 0 for no effect and ±100 for the full control effect.
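Note: exchange makes BODIPY-GDP fluorescence drop when released from Rap1B; series mostly up to about 150 µM.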

Chain of UniProt Q8WZA2 (Q8WZA2 whole entry, looked up): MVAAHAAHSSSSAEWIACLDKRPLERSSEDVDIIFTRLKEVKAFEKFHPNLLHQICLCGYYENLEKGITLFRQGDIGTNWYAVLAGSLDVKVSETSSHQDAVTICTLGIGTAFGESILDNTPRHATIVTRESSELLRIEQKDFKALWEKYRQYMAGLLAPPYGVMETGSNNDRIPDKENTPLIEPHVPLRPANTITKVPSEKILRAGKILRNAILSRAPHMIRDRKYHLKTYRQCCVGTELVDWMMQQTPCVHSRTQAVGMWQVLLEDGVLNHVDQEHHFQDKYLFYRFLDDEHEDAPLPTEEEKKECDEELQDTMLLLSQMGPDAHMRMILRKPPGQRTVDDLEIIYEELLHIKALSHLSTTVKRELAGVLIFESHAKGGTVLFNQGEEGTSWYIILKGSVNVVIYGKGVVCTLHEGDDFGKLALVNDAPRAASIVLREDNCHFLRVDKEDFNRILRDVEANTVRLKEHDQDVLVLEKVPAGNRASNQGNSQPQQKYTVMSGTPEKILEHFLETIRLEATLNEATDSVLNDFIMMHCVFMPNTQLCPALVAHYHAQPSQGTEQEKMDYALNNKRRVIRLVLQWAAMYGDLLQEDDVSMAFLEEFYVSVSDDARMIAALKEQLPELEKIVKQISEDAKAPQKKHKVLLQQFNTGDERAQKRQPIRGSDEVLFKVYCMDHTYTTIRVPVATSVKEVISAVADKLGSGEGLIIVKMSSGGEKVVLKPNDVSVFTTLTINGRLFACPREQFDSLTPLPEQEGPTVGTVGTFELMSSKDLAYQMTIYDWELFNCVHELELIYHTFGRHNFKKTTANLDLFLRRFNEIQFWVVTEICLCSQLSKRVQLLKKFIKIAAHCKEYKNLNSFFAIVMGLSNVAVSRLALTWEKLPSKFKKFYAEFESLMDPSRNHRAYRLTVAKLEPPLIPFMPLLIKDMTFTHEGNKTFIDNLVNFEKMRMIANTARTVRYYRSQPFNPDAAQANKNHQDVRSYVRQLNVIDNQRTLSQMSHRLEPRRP

activation, inactive:
COc1ccc(-n2c(=O)c(CCc3ccccc3)nc3cnc(N4CCNCC4)nc32)cc1 -17.5%
OC(CN1CCN(c2cccc(Cl)c2)CC1)C(c1ccccc1)c1ccccc1 (configuration not stated) -14.6% and 7.57%
CN(C)C(=O)c1ccc(-c2nccc(NCc3cccnc3)n2)cc1 -6.8%
CC(C)(O)[C@@H]1CCC[N+]2(C)CCCC[C@H]12 (some centres not stated) -9.15%
O=C(c1ccccc1-n1cccn1)N1CCOc2ccc(CN3CCOCC3)cc2C1 -2.18%
Cc1cccc(C(=O)N2CCOc3ccc(CN(C)Cc4cc(C5CC5)n[nH]4)cc3C2)n1 -12.8%
CN(C)c1ccc(/C=C/c2ccnc3c2ccc2c(/C=C/c4ccc(N(C)C)cc4)ccnc23)cc1 -23.4%
NC1C=CC=C(C(=O)O)C1 (configuration not stated) 4.15% and -23.5%
COc1ccc2[nH]cc(CCNc3cc(-c4ccccc4CN(C)C)ncn3)c2c1 -27.9%
CC(C)(Sc1ccc(CCN(CCCCC2CCCCC2)C(=O)NC2CCCCC2)cc1)C(=O)O -6.16% and -59.3%
C[C@H](NC(=O)OC(C)(C)C)[C@@H](O)c1ccco1 -21.2%
CSc1ccc2c(c1)N(CCC1CCCCN1C)c1ccccc1S2 (configuration not stated) 1.09% and 6.73% and -14.5%
CCCCC[C@H]1CN(CCCC)C(=O)[C@@H]1CC(=O)NCc1ccc(OC)cc1 -36.5%
CC/C(=C(/CC)c1ccc(O)cc1)c1ccc(O)cc1 -1.29% and 0.832%
O=c1cc(-c2ccc(O)cc2)oc2cc(O[C@H]3OC(CO)C(O)C(O)C3O)cc(O)c12 (some centres not stated) -9.92%
Cc1ccccc1C(=O)N1CCc2c(cnc(C)c2CNC(=O)CN2CCCCC2)C1 -2.25%
CC(=O)O[C@@H]1C(=O)O[C@@H]2[C@H]1OC(=O)[C@@H]2OC(C)=O 5.75%
Cc1cc(S(=O)(=O)NCc2nc(N3CCCC3)c3cc(Cl)ccc3n2)c(C)s1 -4.51%
Cc1ccccc1-c1cc(Nc2ccc(F)cc2)ncn1 -15.9%
CS(=O)(=O)N1CCC2(CCCN(C(=O)Nc3cccc(F)c3)C2)CC1 -8.84%
COCCNc1nc(-c2ccccc2CN(C)C)nc2ccccc12 1.48%
NC(N)=Nc1nc(CSCC/C(N)=N/S(N)(=O)=O)cs1 -9.18% and -12.1%
N#Cc1cccc(NC(=O)N2CC3(CCN(C(=O)c4cnccn4)CC3)C2)c1 -1.69%
COc1ccc(-c2cc(=O)c3c(OC(C)=O)cc(OC(C)=O)cc3o2)cc1 5.51%
Cc1cc(-c2ccccc2)nnc1NCCN1CCOCC1 3.61% and -23.4%
CN(Cc1ccco1)c1ncnc2ccc(-c3ccccc3C#N)cc12 5.13%
C[C@@H]1CN(Cc2ccc3c(c2)CN(Cc2cccc4cccnc24)CCO3)C[C@H](C)O1 -5.06%
Cc1cnc(CNc2ncnc3ccc(-c4ccccc4C#N)cc23)cn1 -3.32%
Cn1c(-c2ccncc2)nc2cc(C(=O)N[C@H]3CCCCNC3=O)cc(NC(=O)C3CCC3)c21 -13.7%
COc1cc(=O)n2c(c1C(=O)NCc1ccco1)CCN(Cc1ccccc1)CC2 0.141%
NCCNS(=O)(=O)c1cccc2cnccc12 -12.5% and 8.19%
CCc1nc2cc(C(=O)N3CCC[C@H]3C(=O)OC)cc(NC(=O)c3ccccc3OC)c2n1C -4.33%
COCCn1c(=O)c(-c2ccc(F)cc2)nc2cnc(OC)nc21 -23.4%
COc1ccc(-c2nc3cc(F)ccc3cc2CN(C(=O)c2cccc(OC)c2)C2CC2)cc1 -12.5%
COC(=O)CC1C2(C)CC34OC5(C)O[C@@]6(C7/C(=C(/OC)C(C)C)C(=O)OC(c8ccoc8)[C@@]7(C)C(OC(=O)C(C)C)C(OC)[C@]6(O5)[C@@]13C)C(OC)[C@]4(OC)C2OC(C)=O (some centres not stated) -45.9%
CC(C)CCCC(C)C1CCC2C3CC(O)[C@@]4(O)CC(O)CC[C@@]4(C)C3CC[C@@]12C (some centres not stated) -22.3%
O=c1ccc2ccc(O[C@@H]3O[C@H](CO)[C@@H](O)[C@H](O)[C@H]3O)c(O)c2o1 -12.5%
CCC[C@H]1COCCS(=O)(=O)N1Cc1ccccc1 -18.1%
CCN(CCO)CCCC(C)Nc1ccnc2cc(Cl)ccc12 (configuration not stated) -23.1% and -7.69%
Cc1nc(Nc2ncc(C(=O)Nc3c(C)cccc3Cl)s2)cc(N2CCN(CCO)CC2)n1 -22.4%
C=C(C)C1CC=C(CO)CC1 (configuration not stated) -6.94%
CC(C)CN1CCCC2(CCN(C(=O)c3cnccn3)CC2)C1 -16.9%
CON -13%
CC(CCC(=O)O)C1CCC2C3CC(O)[C@@H]4CC(O)CC[C@]4(C)C3CC[C@@]12C (some centres not stated) -5.3%
CS(=O)(=O)Nc1cccc(-c2cncnc2NCc2cccs2)c1 3.66%
CN(Cc1ccco1)c1ncnc2ccc(-c3ccccc3C(F)(F)F)cc12 -4.16%
COc1ccc2[nH]cc(CCNc3ncncc3-c3ccccc3CN(C)C)c2c1 7%
O=C(NCc1ccncc1)c1cnn(-c2nccc(-c3cc4ccccc4o3)n2)c1C1CC1 -3.94%
CN(C)c1ncc2nc(-c3ccccc3)c(=O)n(CCC#N)c2n1 -9.06%
CN1CCCCC1CCN1c2ccccc2Sc2ccc(S(C)=O)cc21 (configuration not stated) -14.9% and -19.4% and -9.19%
O=C(NC1CCN(Cc2ccccc2)CC1)c1ccc(I)cc1 -22.5% and -5.74%
CC(C)c1ccc2c(c1)c(SC(C)(C)C)c(CC(C)(C)C(=O)O)n2Cc1ccc(Cl)cc1 -24% and -102%
